{
  "source": "the supplement of paper PMC8728848",
  "assay_in_all_cases": "glycan array binding signal (z-score within array); higher = stronger binding",
  "details_in_all_cases": "glycan notation: IUPAC condensed, linker removed",
  "key": {"Fuc(a1-2)Gal": {"molecular_target": "Fuc(a1-2)Gal", "method_in_brief": "(§1)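 Glycan array data were curated from 3228 arrays in the Consortium for Functional Glycomics database and kept only where the protein sequence was available. Glycan names were converted to IUPAC-condensed notation, and columns mapping to the same glycan were averaged. The binding signal is a within-array Z-score, averaged across arrays of the same protein sequence at different concentrations or buffers and across linkers. Negative Z-scores can be read as non-binding.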"}, "Fuc(a1-2)Gal(b1-3)GalNAc": {"molecular_target": "Fuc(a1-2)Gal(b1-3)GalNAc", "method_in_brief": "as §1"}, "[1]": {"molecular_target": "Fuc(a1-2)Gal(b1-3)GalNAc(a1-3)[Fuc(a1-2)]Gal(b1-4)Glc", "method_in_brief": "as §1"}, "[2]": {"molecular_target": "Fuc(a1-2)Gal(b1-3)GalNAc(a1-3)[Fuc(a1-2)]Gal(b1-4)GlcNAc", "method_in_brief": "as §1"}, "[3]": {"molecular_target": "Fuc(a1-2)Gal(b1-3)GalNAc(b1-3)Gal", "method_in_brief": "as §1"}, "[4]": {"molecular_target": "Fuc(a1-2)Gal(b1-3)GalNAc(b1-3)Gal(a1-4)Gal(b1-4)Glc", "method_in_brief": "as §1"}, "[5]": {"molecular_target": "Fuc(a1-2)Gal(b1-3)GalNAc(b1-3)Gal(b1-4)Glc", "method_in_brief": "as §1"}, "[6]": {"molecular_target": "Fuc(a1-2)Gal(b1-3)GalNAc(b1-4)[Neu5Ac(a2-3)]Gal(b1-4)Glc", "method_in_brief": "as §1"}, "Fuc(a1-2)Gal(b1-3)GlcNAc": {"molecular_target": "Fuc(a1-2)Gal(b1-3)GlcNAc", "method_in_brief": "as §1"}, "[7]": {"molecular_target": "Fuc(a1-2)Gal(b1-3)GlcNAc(b1-2)Man(a1-3)[Fuc(a1-2)Gal(b1-3)GlcNAc(b1-2)Man(a1-6)]Man(b1-4)GlcNAc(b1-4)GlcNAc", "method_in_brief": "as §1"}, "[8]": {"molecular_target": "Fuc(a1-2)Gal(b1-3)GlcNAc(b1-2)Man(a1-3)[Fuc(a1-2)Gal(b1-3)GlcNAc(b1-2)Man(a1-6)]Man(b1-4)GlcNAc(b1-4)[Fuc(a1-6)]GlcNAc", "method_in_brief": "as §1"}, "[9]": {"molecular_target": "Fuc(a1-2)Gal(b1-3)GlcNAc(b1-3)Gal(b1-4)Glc", "method_in_brief": "as §1"}, "[10]": {"molecular_target": "Fuc(a1-2)Gal(b1-3)GlcNAc(b1-3)GalNAc", "method_in_brief": "as §1"}, "[11]": {"molecular_target": "Fuc(a1-2)Gal(b1-3)GlcNAc(b1-3)[Fuc(a1-2)Gal(b1-3)GlcNAc(b1-6)]GalNAc", "method_in_brief": "as §1"}, "[12]": {"molecular_target": "Fuc(a1-2)Gal(b1-3)GlcNAc(b1-3)[Fuc(a1-3)[Gal(b1-4)]GlcNAc(b1-6)]Gal(b1-4)Glc", "method_in_brief": "as §1"}, "[13]": {"molecular_target": "Fuc(a1-2)Gal(b1-3)GlcNAc(b1-3)[Gal(b1-4)GlcNAc(b1-6)]Gal(b1-4)Glc", "method_in_brief": "as §1"}, "[14]": {"molecular_target": "Fuc(a1-2)Gal(b1-3)GlcNAc(b1-3)[Neu5Ac(a2-6)Gal(b1-4)GlcNAc(b1-6)]Gal(b1-4)Glc", "method_in_brief": "as §1"}, "[15]": {"molecular_target": "Fuc(a1-2)Gal(b1-3)GlcNAc6S", "method_in_brief": "as §1"}, "[16]": {"molecular_target": "Fuc(a1-2)Gal(b1-3)[Fuc(a1-4)]GlcNAc", "method_in_brief": "as §1"}, "[17]": {"molecular_target": "Fuc(a1-2)Gal(b1-3)[Fuc(a1-4)]GlcNAc(b1-2)Man(a1-3)[Fuc(a1-2)Gal(b1-3)[Fuc(a1-4)]GlcNAc(b1-2)Man(a1-3)]Man(b1-4)GlcNAc(b1-4)GlcNAc", "method_in_brief": "as §1"}, "[18]": {"molecular_target": "Fuc(a1-2)Gal(b1-3)[Fuc(a1-4)]GlcNAc(b1-2)Man(a1-3)[Fuc(a1-2)Gal(b1-3)[Fuc(a1-4)]GlcNAc(b1-2)Man(a1-6)]Man(b1-4)GlcNAc(b1-4)GlcNAc", "method_in_brief": "as §1"}, "[19]": {"molecular_target": "Fuc(a1-2)Gal(b1-3)[Fuc(a1-4)]GlcNAc(b1-2)Man(a1-3)[Fuc(a1-2)Gal(b1-3)[Fuc(a1-4)]GlcNAc(b1-2)Man(a1-6)]Man(b1-4)GlcNAc(b1-4)[Fuc(a1-6)]GlcNAc(b1-4)[Fuc(a1-6)]GlcNAc", "method_in_brief": "as §1"}, "[20]": {"molecular_target": "Fuc(a1-2)Gal(b1-3)[Fuc(a1-4)]GlcNAc(b1-3)[Fuc(a1-3)[Gal(b1-4)]GlcNAc(b1-6)]Gal(b1-4)Glc", "method_in_brief": "as §1"}, "[21]": {"molecular_target": "Fuc(a1-2)Gal(b1-3)[Fuc(a1-4)]GlcNAc(b1-3)[Gal(b1-4)GlcNAc(b1-6)]Gal(b1-4)Glc", "method_in_brief": "as §1"}, "[22]": {"molecular_target": "Fuc(a1-2)Gal(b1-4)Fuc(a1-3)]GlcNAc(b1-2)Man(a1-3)[Fuc(a1-2)Gal(b1-4)[Fuc(a1-3)]GlcNAc(b1-2)Man(a1-6)]Man(b1-4)GlcNAc(b1-4)GlcNAc", "method_in_brief": "as §1"}, "Fuc(a1-2)Gal(b1-4)Glc": {"molecular_target": "Fuc(a1-2)Gal(b1-4)Glc", "method_in_brief": "as §1"}, "Fuc(a1-2)Gal(b1-4)Glc6S": {"molecular_target": "Fuc(a1-2)Gal(b1-4)Glc6S", "method_in_brief": "as §1"}, "Fuc(a1-2)Gal(b1-4)GlcNAc": {"molecular_target": "Fuc(a1-2)Gal(b1-4)GlcNAc", "method_in_brief": "as §1"}, "[23]": {"molecular_target": "Fuc(a1-2)Gal(b1-4)GlcNAc(b1-2)Man", "method_in_brief": "as §1"}, "[24]": {"molecular_target": "Fuc(a1-2)Gal(b1-4)GlcNAc(b1-2)Man(a1-3)[Fuc(a1-2)Gal(b1-4)GlcNAc(b1-2)Man(a1-6)]Man(b1-4)GlcNAc(b1-4)GlcNAc", "method_in_brief": "as §1"}},
  "note": "Some of the results follow.",
  "data": [
    {"binder": "Epa1-NP (Candida glabrata), Q6VBJ0 (protein) MILNPALFLNKCVCIYTTLILLLLTNGGYATSSNDISLASKDPTTFPLGCSPDITTPKKGLSMELYSYDFRKKGSYPCWDAAYLDPNYPRTGYKSHRLLAKVDGVTGNINFYYHATKGCTPQLGHLPASYNYPKPLTMTNFTMLLYGYFRPKVTGFHTFTISADDLLFVNFGAGNAFDCCRRDSSADHFGNYQAYAIWGSKTAKDELTVHLDAGVYYPIRLFYNNREYDGALSFTFKTESNENTVSDFSEYFFSLDDTEEGCPGLISYDSSCASVKTSKIIGIDYHTETPNENLVPITKTIYHLGIPCTGTTTTPLCGSGFYDPLANKCVTINTSSTSSVTKTTSHTTSKEVSFHSSISSQKTLIPKSIPSPYGPIKSQSIPTEMETSSEISSSEYAFSDVISTPSHSPYTKKHSSLNSSSYTSTVIHSLTSYSISQGIFSTSLSEQNITSKSSTDKFSTATSMSNNITQSSIIISQFSTNNENYTTTSMHTSSDKISTETLNNSISTTTSILFSNSSTILKNNTTIISSDKDTHYHPVNPTIVCSTNKTEIICASITQPSISNSNNHWSSSVLKFNSTTVRSTLPSSAGSNETSINVPFSSSTESNTSTSSTSTSNSKMVRSTLPSSAGSNETSISVPFSSSTESNTSTSSTSTSNSKMVRSTLPSSAGSNETSINVPFSSSTESNTSTSSTSTSNSKTVRSTPFSSAGIIMTSLSQRNNKSASSYASSNSKCYNTADSCRKVHSTPSYLLTSSYTSEGVDYDCSLVSTKLKINDTNCVNNKHTTKSCLKTSVTTTIPTLEIKTARKSSSNTIGLHSYPTSSPNKSISSAPIIGYISSFKTIKTASPSYQTSDLTTITTITSLNNPGSTAVENTHESNDKSRKTSSNDISSKHSVIKETKDAVESSNKSHQTNTLKCSSIIIASSSHNSYESLGGTTLTLTLSKVYSPQNNDTLPFLEISEVNPSRTVLPESSKMMQYLTSTEERNKTARNTIATNIVSISTFHFEGEGNAIRMGYTQLLLMLIGIIVMNIGT", "values": [
      {"measurement": "glycan array binding signal (z-score)", "setting": "Fuc(a1-2)Gal", "result": -0.331},
      {"measurement": "glycan array binding signal (z-score)", "setting": "Fuc(a1-2)Gal(b1-3)GalNAc", "result": -0.36},
      {"measurement": "glycan array binding signal (z-score)", "setting": "[1]", "result": -0.269},
      {"measurement": "glycan array binding signal (z-score)", "setting": "[2]", "result": -0.21},
      {"measurement": "glycan array binding signal (z-score)", "setting": "[3]", "result": -0.281},
      {"measurement": "glycan array binding signal (z-score)", "setting": "[4]", "result": -0.305},
      {"measurement": "glycan array binding signal (z-score)", "setting": "[5]", "result": -0.554},
      {"measurement": "glycan array binding signal (z-score)", "setting": "[6]", "result": -0.171},
      {"measurement": "glycan array binding signal (z-score)", "setting": "Fuc(a1-2)Gal(b1-3)GlcNAc", "result": -0.277},
      {"measurement": "glycan array binding signal (z-score)", "setting": "[7]", "result": -0.291},
      {"measurement": "glycan array binding signal (z-score)", "setting": "[8]", "result": -0.257},
      {"measurement": "glycan array binding signal (z-score)", "setting": "[9]", "result": -0.296},
      {"measurement": "glycan array binding signal (z-score)", "setting": "[10]", "result": -0.286},
      {"measurement": "glycan array binding signal (z-score)", "setting": "[11]", "result": -0.255},
      {"measurement": "glycan array binding signal (z-score)", "setting": "[12]", "result": -0.241},
      {"measurement": "glycan array binding signal (z-score)", "setting": "[13]", "result": 0.139},
      {"measurement": "glycan array binding signal (z-score)", "setting": "[14]", "result": -0.203},
      {"measurement": "glycan array binding signal (z-score)", "setting": "[15]", "result": -0.241},
      {"measurement": "glycan array binding signal (z-score)", "setting": "[16]", "result": -0.33},
      {"measurement": "glycan array binding signal (z-score)", "setting": "[17]", "result": -0.267},
      {"measurement": "glycan array binding signal (z-score)", "setting": "[18]", "result": -0.047},
      {"measurement": "glycan array binding signal (z-score)", "setting": "[19]", "result": -0.282},
      {"measurement": "glycan array binding signal (z-score)", "setting": "[20]", "result": -0.148},
      {"measurement": "glycan array binding signal (z-score)", "setting": "[21]", "result": 0.18},
      {"measurement": "glycan array binding signal (z-score)", "setting": "[22]", "result": -0.258},
      {"measurement": "glycan array binding signal (z-score)", "setting": "Fuc(a1-2)Gal(b1-4)Glc", "result": -0.301},
      {"measurement": "glycan array binding signal (z-score)", "setting": "Fuc(a1-2)Gal(b1-4)Glc6S", "result": -0.317},
      {"measurement": "glycan array binding signal (z-score)", "setting": "Fuc(a1-2)Gal(b1-4)GlcNAc", "result": -0.325},
      {"measurement": "glycan array binding signal (z-score)", "setting": "[23]", "result": -0.279},
      {"measurement": "glycan array binding signal (z-score)", "setting": "[24]", "result": -0.274}
    ]}
  ]
}
